Laboratory results published in the supplement of paper PMC12217912.
The other results are listed elsewhere or left out. The full chains were built here from the parent and the listed change. Inactive controls read about 0.05.

B1: TEV protease; numbered along this chain (parent)
chain: MGESLFKGPRDYNPISSSICHLTNESDGHTTSLYGIGFGPFIITNKHLFRRNNGTLVVQSLHGVFKVKDTTTLQQHLVDGRDMIIIRMPKDFPPFPQKLKFREPQREERICLVTTNFQTKSMSSMVSDTSCTFPSGDGIFWKHWIQTKDGQCGSPLVSTRDGFIVGIHSASNFTNTNNYFTSVPKNFMELLTNQEAQQWVSGWRLNADSVLWGGHKVFMVKPEEPFQPVKEATQL

Variants of: B1
Assay: raw area under fraction-flipped curve 0-4 h after induction (AUC4h, not background-subtracted), DNA-recorder readout of cleavage of the substrate (dimensionless); higher = more cleavage of the substrate by the protease variant
Details: temperature: 34 °C; time window: 0-4 h after rhamnose induction
Description: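 In vivo DNA recorder in E. coli TOP10(DE3) ΔrhaA at 34 °C. Each TEVp single-site mutant (parent TEVp 0) is paired with a single-site variant of the 7-mer TEVs (canonical ENLYFQ|S). The substrate sits between flexible linkers in a Bxb1-sfGFP-TEVs-SsrA fusion, so cleavage stabilises Bxb1 and speeds flipping of a recombination array, read by NGS. The value is the raw area under the fraction-flipped curve over 0-4 h after rhamnose induction (AUC4h), with ≥20 reads per time point. It is not background-subtracted; inactive controls average about 0.047.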
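Further: Bxb1 expression induced with 0.2% (w/v) L-rhamnose at OD600 near 0.5, cultures sampled hourly, flipped fraction per protease–substrate barcode pair counted by paired-end Illumina sequencing.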

| Variant | area with substrate ENLYAQS | area with substrate ENLYDQS | area with substrate ENLYEQS | area with substrate ENLYGQS | area with substrate ENLYHQS | area with substrate ENLYIQS | area with substrate ENLYKQS | area with substrate ENLYMQS | area with substrate ENLYNQS | area with substrate ENLYPQS | area with substrate ENLYQQS | area with substrate ENLYRQS | area with substrate ENLYSQS | area with substrate ENLYTQS | area with substrate ENLYWQS | area with substrate ENLYYQS | area with substrate ENLYCQS | area with substrate ENLYVQS | area with substrate ENLYLQS |
| --- | --- | --- | --- | --- | --- | --- | --- | --- | --- | --- | --- | --- | --- | --- | --- | --- | --- | --- | --- |
| L48D | 0.0789 | 0.0598 | 0.0611 | 0.0931 | 0.0574 | 0.0656 | 0.0239 | 0.0567 | 0.0432 | 0.0558 | 0.0613 | 0.0515 | 0.0641 | 0.0415 | 0.0572 | 0.0655 |  |  |  |
| L48Y | 0.0581 |  | 0.0725 | 0.0537 | 0.0552 | 0.0702 |  | 0.052 | 0.0629 | 0.0596 |  | 0.0659 |  | 0.0613 |  | 0.0603 | 0.0797 | 0.0459 |  |
| S201D | 0.0641 | 0.0612 | 0.0628 | 0.0531 | 0.0619 | 0.111 | 0.0607 | 0.0624 | 0.0527 | 0.0718 | 0.0444 | 0.0479 | 0.0703 |  |  |  | 0.103 | 0.104 |  |
| W144D | 0.0852 | 0.0694 |  | 0.0661 | 0.0637 |  | 0.0714 | 0.0915 | 0.0678 | 0.0727 | 0.0703 | 0.0334 | 0.0639 |  | 0.0716 |  |  |  |  |
| N24F | 0.0577 | 0.068 | 0.0621 | 0.0663 | 0.0699 | 0.109 | 0.0681 | 0.0581 | 0.0607 | 0.0692 | 0.0772 | 0.071 | 0.0731 |  |  | 0.0658 | 0.0767 | 0.0973 |  |
| N24V | 0.0636 | 0.0643 | 0.0694 | 0.0691 | 0.0587 | 0.0769 | 0.0743 | 0.0732 | 0.0588 | 0.0652 | 0.0656 | 0.0776 | 0.0622 | 0.0722 | 0.0641 | 0.067 | 0.0905 | 0.0911 | 0.0561 |
| F187P | 0.105 | 0.0563 | 0.0495 | 0.0525 | 0.061 | 0.0443 | 0.0552 | 0.0494 | 0.0474 | 0.0064 | 0.0557 |  | 0.048 |  | 0.0461 |  |  | 0.0563 |  |
| H21T | 0.0635 | 0.0656 | 0.0655 | 0.0615 | 0.0632 | 0.104 | 0.0604 | 0.0561 | 0.0669 | 0.068 | 0.0535 | 0.0662 | 0.0756 | 0.0614 | 0.0683 | 0.0616 | 0.0838 | 0.11 |  |
| H21E | 0.0816 | 0.0696 | 0.0434 | 0.0673 | 0.0645 | 0.0906 | 0.0461 | 0.0744 | 0.0595 | 0.0634 | 0.0591 | 0.0688 | 0.0599 | 0.064 | 0.0917 | 0.0651 | 0.0938 | 0.0672 | 0.0716 |
| L22G | 0.0518 | 0.0411 |  | 0.0778 |  |  |  | 0.0292 |  | 0.0097 |  |  | 0.0379 |  | 0.0391 |  |  | 0.0426 | 0.0333 |
| G63W | 0.0811 | 0.0513 | 0.0563 | 0.0642 | 0.0578 |  | 0.0543 | 0.119 | 0.0569 | 0.0728 | 0.0593 | 0.0667 | 0.08 | 0.0665 | 0.0547 | 0.0566 | 0.0822 | 0.0961 | 0.0761 |
| D161Q | 0.0321 | 0.0505 | 0.0558 | 0.0596 | 0.0518 | 0.0584 | 0.0532 | 0.0572 | 0.0472 |  | 0.0546 | 0.0588 | 0.0499 | 0.063 |  |  | 0.0676 | 0.0645 |  |
| E224L | 0.0668 | 0.057 |  | 0.0722 | 0.0787 |  | 0.0674 |  | 0.0716 | 0.0728 | 0.0548 | 0.0452 | 0.0498 |  | 0.0668 | 0.0768 | 0.0704 |  | 0.0919 |
| L77P | 0.084 | 0.0555 | 0.0561 | 0.0632 | 0.0629 | 0.0799 | 0.0706 | 0.0654 | 0.0403 | 0.0675 |  |  |  | 0.0649 | 0.0861 | 0.0672 | 0.0798 | 0.12 |  |
| L56G | 0.05 | 0.0598 | 0.0526 | 0.0274 | 0.0538 |  |  | 0.0459 | 0.048 | 0.037 | 0.0493 | 0.0561 |  | 0.0499 | 0.0656 |  |  |  |  |
| N172C | 0.0651 | 0.0664 |  |  |  | 0.064 |  |  | 0.0734 | 0.0654 | 0.0538 |  |  |  |  |  |  | 0.0765 | 0.0835 |
| P96W | 0.0638 |  |  | 0.0495 | 0.0663 |  | 0.026 | 0.0617 | 0.0638 | 0.0642 |  |  | 0.0755 | 0.0058 |  |  |  | 0.108 |  |
| M125D | 0.0625 | 0.0647 | 0.0723 | 0.0573 | 0.0822 | 0.138 | 0.0512 | 0.066 | 0.0782 | 0.0672 | 0.0637 | 0.0678 | 0.0468 |  | 0.0858 | 0.0626 |  | 0.102 |  |
| G166C | 0.0656 | 0.0428 | 0.068 |  | 0.0771 |  |  | 0.0594 | 0.0513 | 0.0505 | 0.0036 | 0.0617 | 0.0469 | 0.0422 |  |  | 0.0535 | 0.0649 |  |
| R51I | 0.0654 | 0.0228 | 0.0565 | 0.0548 | 0.0753 | 0.0939 | 0.0691 | 0.0724 | 0.0564 | 0.0469 | 0.065 | 0.0632 |  |  | 0.0694 |  |  |  |  |
| T174A | 0.065 | 0.0564 | 0.0563 |  | 0.0657 | 0.126 |  |  |  | 0.102 |  |  |  |  | 0.0617 |  |  |  |  |
| G150N | 0.0679 |  |  | 0.0408 | 0.0569 | 0.0968 | 0.0531 | 0.0527 | 0.067 | 0.057 | 0.0686 | 0.0505 | 0.05 |  | 0.0614 | 0.0603 |  |  |  |
| G150C | 0.0534 | 0.0677 | 0.0535 | 0.0559 | 0.0609 | 0.0538 | 0.0388 | 0.0583 | 0.0607 | 0.0588 | 0.0586 |  | 0.0622 |  | 0.0628 | 0.0536 | 0.0596 | 0.0692 |  |
| R106Q | 0.0751 | 0.0583 | 0.0738 | 0.0689 | 0.0731 | 0.115 | 0.0417 | 0.0722 | 0.0675 | 0.0747 | 0.0596 | 0.0604 | 0.0803 |  | 0.0757 | 0.0621 |  | 0.106 | 0.0797 |
| R106P | 0.0394 |  | 0.0546 | 0.0922 | 0.0624 |  | 0.0612 |  | 0.0689 | 0.072 | 0.0581 | 0.0642 | 0.0643 |  | 0.071 |  |  |  | 0.094 |
